Like-named read-outs stand apart in the source and are kept apart here.
Experiments:
[1] = system: herpes simplex virus type 2 (HSV-2) strain G; experiment: Inhibition of virus-induced cytopathicity in HEL cell cultures, HSV-2; assay type: cell-based; conditions: for EC50: read-out: Antiviral EC50 Herpes simplex virus-2 (G)
[2] = system: herpes simplex virus type 1 (HSV-1) strain KOS; experiment: Inhibition of virus-induced cytopathicity in HEL cell cultures, HSV-1; assay type: cell-based; conditions: for EC50: read-out: Antiviral EC50 Herpes simplex virus-1 (KOS)
[3] = Human alphaherpesvirus 2, HEL cell cultures, reduces virus-induced cytopathogenic effect by 50%
[4] = Human alphaherpesvirus 1, HEL cell cultures, reduces virus-induced cytopathogenic effect by 50%
[5] = HEL cell cultures, at subtoxic concentrations (~100 μM)

SMILES | EC50 [1, 3] | EC50 [2, 4] | Antiherpetic activity HSV-2 (G) (in words) [1, 5] | EC50 ([1]; Human alphaherpesvirus 2, HEL) | Antiherpetic activity HSV-1 (KOS) (in words) [2, 5] | EC50 ([2]; Human alphaherpesvirus 1, HEL)
O=c1[nH]c(=O)n([C@H]2C[C@H](O)[C@@H](CO)O2)cc1/C=C/Br [Brivudin] |  | 40 nM |  |  |  | 
Nc1ccn(C2CCC(CO)C3CC32)c(=O)n1 (stereo not drawn) [Compound 2e, 4-Amino-1-[(1′S,2′S,5′R,6′R)-5′-(hydroxymethyl)bicyclo [4.1.0]hept-2′-yl]pyrimidin-2(1H)-one] |  |  | did not show significant antiviral activity | > 100000 nM | did not show significant antiviral activity | > 100000 nM

Second part, led by results:

EC50 [1, 3] | EC50 [2, 4] | SMILES | Antiherpetic activity HSV-2 (G) (in words) [1, 5] | EC50 ([1]; Human alphaherpesvirus 2, HEL) | Antiherpetic activity HSV-1 (KOS) (in words) [2, 5] | EC50 ([2]; Human alphaherpesvirus 1, HEL)
400 nM | 400 nM | Nc1nc2c(ncn2COCCO)c(=O)[nH]1 [Acyclovir] |  |  |  | 
1400 nM | 2000 nM | Nc1ccn(C[C@@H](CO)OCP(=O)(O)O)c(=O)n1 [Cidofovir] |  |  |  | 
50 nM | 20 nM | Nc1nc(O)c2ncn(COC(CO)CO)c2n1 [Ganciclovir] |  |  |  | 

— paper PMC9456008, “Enantiocontrolled Preparation of ϒ-Substituted Cyclohexenones: Synthesis and Kinase Activity Assays of Cyclopropyl-Fused Cyclohexane Nucleosides” (International Journal of Molecular Sciences, 2022)
